Test results taken from PubChem BioAssay AID504333 (National Center for Advancing Translational Sciences (NCATS), 2011).
The campaign covered roughly 360,000 compounds. About 16,000 (4.4%) were called active. Inconclusive means that the source gave no clear call. Such entries were picked first, then a sample of the others. The call rests on the fitted dose curve; in most records, active means well fitted inhibition curve with a large enough effect; inconclusive means small, poorly fitted or top-dose-only effect; inactive means no such curve, though single readings can be large or run the other way. Potencies beside an inconclusive call are fits to weak or partial responses and may not hold up.

The molecules below were run against Bromodomain adjacent to zinc finger domain protein 2B (Homo sapiens) (UniProt Q9UIF8) (assay: qHTS Assay for Inhibitors of BAZ2B). Conditions: AlphaScreen BAZ2B-H3K14Ac peptide displacement; series mostly up to 114 µM.
Outline: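 AlphaScreen luminescence quantifies BAZ2B engagement of H3K14Ac peptide; the protein and biotinylated peptide are both at 50 nM final, buffer PBS pH 7.4 with 0.01% Tween-20, all steps at room temperature.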
Further: nearly all actives have a fitted effect of over 60% in size.
Potency means the concentration at half of the fitted maximal effect; tags describe the fitted curve by direction and shape.

Sequence of UniProt Q9UIF8 (Q9UIF8 whole entry, looked up, the tested form may be a part): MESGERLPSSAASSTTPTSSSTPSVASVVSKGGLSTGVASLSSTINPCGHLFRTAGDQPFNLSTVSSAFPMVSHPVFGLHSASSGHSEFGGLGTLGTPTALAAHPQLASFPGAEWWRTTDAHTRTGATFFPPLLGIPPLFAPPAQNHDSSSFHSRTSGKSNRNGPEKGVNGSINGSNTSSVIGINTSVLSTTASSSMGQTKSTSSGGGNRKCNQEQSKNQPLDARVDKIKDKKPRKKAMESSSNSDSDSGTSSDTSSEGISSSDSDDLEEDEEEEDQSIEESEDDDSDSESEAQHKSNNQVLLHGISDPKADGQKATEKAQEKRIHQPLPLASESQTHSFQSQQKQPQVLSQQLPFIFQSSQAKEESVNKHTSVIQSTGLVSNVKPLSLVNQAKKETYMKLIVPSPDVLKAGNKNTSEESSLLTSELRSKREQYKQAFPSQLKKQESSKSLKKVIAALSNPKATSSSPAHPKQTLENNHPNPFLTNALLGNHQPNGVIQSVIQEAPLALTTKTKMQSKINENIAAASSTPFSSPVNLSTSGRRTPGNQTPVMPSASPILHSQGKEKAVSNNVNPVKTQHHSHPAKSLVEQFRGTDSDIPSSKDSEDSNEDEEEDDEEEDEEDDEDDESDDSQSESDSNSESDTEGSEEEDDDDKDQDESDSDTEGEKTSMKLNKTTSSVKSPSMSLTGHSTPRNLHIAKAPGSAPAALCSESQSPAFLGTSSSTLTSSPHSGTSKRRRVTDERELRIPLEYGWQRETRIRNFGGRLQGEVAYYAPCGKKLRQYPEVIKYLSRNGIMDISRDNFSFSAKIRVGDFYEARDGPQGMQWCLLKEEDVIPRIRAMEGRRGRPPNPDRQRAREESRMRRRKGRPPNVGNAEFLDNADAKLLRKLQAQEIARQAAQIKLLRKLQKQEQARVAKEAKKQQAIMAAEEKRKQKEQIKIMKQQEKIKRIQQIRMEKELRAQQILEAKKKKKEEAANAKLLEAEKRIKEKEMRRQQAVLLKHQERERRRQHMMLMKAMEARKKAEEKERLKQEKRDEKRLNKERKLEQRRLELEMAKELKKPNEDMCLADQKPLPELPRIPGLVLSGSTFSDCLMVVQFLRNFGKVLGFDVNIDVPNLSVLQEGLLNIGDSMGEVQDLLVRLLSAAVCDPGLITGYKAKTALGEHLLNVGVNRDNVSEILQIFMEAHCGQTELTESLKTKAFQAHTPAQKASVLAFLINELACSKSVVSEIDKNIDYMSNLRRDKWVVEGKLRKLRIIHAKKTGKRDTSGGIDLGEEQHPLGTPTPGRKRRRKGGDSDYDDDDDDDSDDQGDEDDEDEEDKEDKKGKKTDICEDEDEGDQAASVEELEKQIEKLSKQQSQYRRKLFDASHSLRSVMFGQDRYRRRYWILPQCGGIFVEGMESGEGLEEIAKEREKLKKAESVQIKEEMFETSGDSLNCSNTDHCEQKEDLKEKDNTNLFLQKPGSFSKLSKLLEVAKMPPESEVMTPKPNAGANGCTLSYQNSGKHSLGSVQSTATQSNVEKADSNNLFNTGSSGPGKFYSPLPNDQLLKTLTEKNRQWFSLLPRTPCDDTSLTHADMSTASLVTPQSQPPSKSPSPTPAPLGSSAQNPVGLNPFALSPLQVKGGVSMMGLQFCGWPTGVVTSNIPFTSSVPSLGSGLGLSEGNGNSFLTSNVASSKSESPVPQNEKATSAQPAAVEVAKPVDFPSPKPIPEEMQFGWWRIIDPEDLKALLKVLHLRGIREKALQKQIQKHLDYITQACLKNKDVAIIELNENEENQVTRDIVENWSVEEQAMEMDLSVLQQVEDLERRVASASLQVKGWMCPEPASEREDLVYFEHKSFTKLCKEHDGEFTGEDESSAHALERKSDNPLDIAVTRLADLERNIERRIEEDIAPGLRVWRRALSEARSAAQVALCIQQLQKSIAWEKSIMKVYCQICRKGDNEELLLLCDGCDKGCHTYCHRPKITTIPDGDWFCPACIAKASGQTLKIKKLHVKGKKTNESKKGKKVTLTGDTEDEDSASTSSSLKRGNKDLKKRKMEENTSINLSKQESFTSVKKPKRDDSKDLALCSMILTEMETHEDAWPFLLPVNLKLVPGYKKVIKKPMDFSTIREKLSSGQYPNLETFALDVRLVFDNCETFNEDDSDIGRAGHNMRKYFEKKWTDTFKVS

Row | Compound | Potency
1 | CC(C)S(=O)(=O)c1oc(-c2ccc(F)cc2)nc1S(=O)(=O)c1ccc(F)cc1 | inactive
2 | CC(C1CC1)N(Cc1ccccc1)C(=O)NC(=O)c1ccccc1 (stereo unspecified) | inconclusive: 79.4 µM [inhibitor, single point]
3 | Cc1ccccc1N=C1NC(=O)/C(=C/c2cccn2C)S1 | inconclusive: 12.6 µM [inhibitor, full curve]
4 | CCC(C)NC(=S)N1CCN(C)CC1 (stereo unspecified) | inactive
5 | Cc1ccc(NC(=O)C(Cc2ccccc2)NS(=O)(=O)c2ccc3c(c2)c(=O)n(C)c(=O)n3C)cc1 (stereo unspecified) | inconclusive: 50.1 µM [inhibitor, partial curve]
6 | COCCN=c1scc(-c2cccs2)n1/N=C/c1ccc(O)c(O)c1O | active: 35.5 µM
7 | CN1/C(=C\C=C2/SC(=S)N(CC(=O)O)C2=O)C(C)(C)c2ccccc21 | active: 28.2 µM
8 | Oc1ccc(N=Cc2c(O)ccc3ccccc23)cc1 | inconclusive: 35.5 µM [inhibitor, partial curve]
9 | O=C1Nc2ccc(F)cc2C12Nc1ccccc1-c1nnc(SCc3ccccc3Cl)nc1O2 (stereo unspecified) | inconclusive: 44.7 µM [inhibitor, partial curve]
10 | CCOc1ccc2oc(C(=O)Nc3ccc4c(c3)OCO4)c(C)c2c1 | inactive
11 | CC(=O)Nc1ccc(-n2cc3c(c2-c2ccc(C)cc2)c(=O)n(C)c(=O)n3C)cc1 | inconclusive: 50.1 µM [inhibitor, partial curve]
12 | CCNc1nc(NCC)n2c(SCC(=O)Nc3ccc(F)cc3[N+](=O)[O-])nnc2n1 | inactive
13 | O=C(c1ccco1)[C@@H]1[C@@H]2C(=O)N(c3ccccc3)C(=O)[C@@H]2C2c3ccccc3C=CN21 (stereo partly specified) | active: 79.4 µM
14 | CCN(CC)CCNC(=O)c1cn(-c2ccccc2)nc1-c1cccs1 | inconclusive: 89.1 µM [inhibitor, single point]
15 | O=C(O)c1c2c(nc3ccccc13)/C(=C/c1ccccc1[N+](=O)[O-])CCC2 | inconclusive: 3.98 µM [inhibitor, single point]
16 | CCC(=O)Nc1ccccc1-c1nc2ccccc2n(C(CC)C(=O)Nc2cccc(C(C)=O)c2)c1=O (stereo unspecified) | inconclusive: 89.1 µM [inhibitor, single point]
17 | CCC(C)NC(=O)C1CCN(C(=O)c2cc3sccc3n2Cc2ccc(Cl)cc2)CC1 (stereo unspecified) | inactive
18 | COc1cccc(CC2(CO)CCCN(CC3=Cc4cc(OC)ccc4OC3)C2)c1 (stereo unspecified) | inconclusive: 28.2 µM [inhibitor, full curve]
19 | COc1ccccc1CN1CCN(C(=O)c2ccncc2)CC1 | active: 25.1 µM
20 | Cc1ccc(C)c(S(=O)(=O)c2nnn3c2nc(N2CCCC2)c2sccc23)c1 | inactive
21 | CCOc1ccc(N2C(=O)c3cccnc3C2=O)cc1 | active: 56.2 µM
22 | COc1ccc(Nc2oc(-c3ccc(COc4ccc(OC)cc4)o3)nc2C#N)cc1 | inconclusive: 79.4 µM [inhibitor, single point]
23 | O=C(Nc1ccc(N2CCCCCC2)cc1)c1ccccc1Cl | active: 28.2 µM
24 | S=C(NCCCN1CCOCC1)NCCCN1CCOCC1 | inactive
25 | Cc1ccc2ncc(C(=O)Nc3cccc(C(F)(F)F)c3)c(=O)n2c1 | inactive
26 | O=C(CSc1ccccc1C(=O)O)NC1CCCCCC1 | inactive

Row | Compound | Potency
27 | CC1(C)CC(=O)C=C(Nc2ccc(O)c(C(=O)O)c2)C1 | inactive
28 | O=C(O)CCNc1cc(N2CCN(C(=O)c3ccco3)CC2)c2noc3c2c1C(=O)c1ccccc1-3 | active: 12.6 µM
29 | O=S(=O)(NCc1nc2ccccc2[nH]1)c1ccccc1 | inconclusive: 89.1 µM [inhibitor, single point]
30 | O=[N+]([O-])c1cc(S(=O)(=O)C(F)(F)F)ccc1Sc1nc2ccccc2[nH]1 | inconclusive: 39.8 µM [inhibitor, partial curve]
31 | COc1ccc(CNC(=O)c2sc(=S)n(-c3ccc(OC)cc3)c2N)cc1 | inconclusive: 89.1 µM [inhibitor, single point]
32 | Cc1ccccc1Cn1c(=N)n(CC(=O)c2ccc([N+](=O)[O-])cc2)c2ccccc21 | inconclusive: 89.1 µM [inhibitor, single point]
33 | O=[N+]([O-])c1cc(S(=O)(=O)N2CCCC2)ccc1O | inactive
34 | CC1CN(C(=O)c2cc(S(=O)(=O)N3CCCC3)c(Cl)cc2Cl)CC(C)O1 (stereo unspecified) | inactive
35 | Cc1c(Cl)ccc2sc(NC(=O)c3ccc(S(=O)(=O)N4CCCC4)cc3)nc12 | inactive
36 | O=C1CC(c2ccc(Cl)cc2)CC(=O)C1CS(=O)(=O)c1ccccc1 (stereo unspecified) | active: 79.4 µM
37 | COc1cccc(NC(C(=O)Nc2cccc(C(C)=O)c2)c2ccccc2)c1 (stereo unspecified) | inconclusive: 79.4 µM [inhibitor, single point]
38 | O=C(N/N=C/c1sc(N2CCCCC2)nc1-c1cccs1)C1CC1 | inactive
39 | Cc1oc(-c2ccccc2F)nc1CSCC(=O)NC1CCC(C)CC1 (stereo unspecified) | inactive
40 | O=[N+]([O-])c1cc(-c2ccn[nH]2)ccc1Cl | inactive
41 | COc1ccc(C2=NN(Cc3ccccc3)C3C(=O)NC(=O)C23)cc1 (stereo unspecified) | inconclusive: 44.7 µM [inhibitor, partial curve]
42 | CC1=C(C(=O)OCc2ccccc2)C(c2cccc(Br)c2)NC(=O)N1 (stereo unspecified) | inactive
43 | Cc1nnc2ccc(-c3ccc(NC(=O)Cc4cccs4)cc3)nn12 | inconclusive: 70.8 µM [inhibitor, partial curve]
44 | CN(c1cccc(NC(=O)c2cccc([N+](=O)[O-])c2)c1)S(C)(=O)=O | inconclusive: 89.1 µM [inhibitor, single point]
45 | Cc1c(C)n(Cc2ccccc2)c2ccc(C(=O)NCCN3CCOCC3)cc12 | inconclusive: 44.7 µM [inhibitor, partial curve]
46 | COc1ccc(C(=O)COC(=O)c2cc(C)no2)c(OC)c1 | inconclusive: 79.4 µM [inhibitor, single point]
47 | Cc1ccccc1C(=O)N1CCc2c([nH]c3ccccc23)C1C(F)(F)F (stereo unspecified) | inconclusive: 31.6 µM [inhibitor, full curve, poor fit]
48 | O=C(COC(=O)/C=C/c1cccs1)Nc1cccc(S(=O)(=O)N2CCCC2)c1 | inactive
49 | O=C(CCc1nnc(C2CCCCC2)o1)NCc1ccc(F)c(F)c1 | inactive
50 | CCOc1ccccc1C(=O)NCC(=O)N1CCN(Cc2ccc3c(c2)OCO3)CC1 | inactive
51 | CCN(CCNC(=O)C1CCCN(Cc2nc(-c3ccc(OC)cc3)oc2C)C1)c1ccccc1 (stereo unspecified) | active: 11.2 µM
52 | COc1ccc(OCC2c3cc(OC)c(OC)cc3CCN2C(=O)C(C)C)cc1 (stereo unspecified) | inactive

Row | Compound | Potency
53 | CC(C)n1cc(/C=C/c2cc[n+](C)cc2)c2ccccc21 | inconclusive: 79.4 µM [inhibitor, single point]
54 | CCn1c(N2CCC(Cc3ccccc3)CC2)nc2c1c(=O)[nH]c(=O)n2C | inconclusive: 44.7 µM [inhibitor, partial curve]
55 | CSc1nsc(SCC(=O)Nc2ccc(O)c(C(=O)O)c2)n1 | inactive
56 | Cc1ccc(S(=O)(=O)N2CCN(c3c([N+](=O)[O-])cc(C(F)(F)F)cc3[N+](=O)[O-])CC2)cc1 | inconclusive: 7.08 µM [inhibitor, full curve, poor fit]
57 | COc1ccc(Nc2ncnc3c2cnn3C)c(OC)c1 | inactive
58 | CC1=CN2C(=N)/C(=C/c3ccc(C)o3)C(=O)N=C2S1 | inconclusive: 70.8 µM [inhibitor, single point]
59 | Cc1ccc(-c2nc(N)sc2CC(=O)OCC(=O)N2C(C)CCCC2C)cc1 (stereo unspecified) | inconclusive: 63.1 µM [inhibitor, partial curve, poor fit]
60 | CCCC1C2CN(C(C)C)CC=C2C(C#N)=C(N)C1(C#N)C#N (stereo unspecified) | inactive
61 | Cc1nc2cc(C(=O)NCc3ccc4c(c3)OCO4)ccc2n1-c1ccc(Br)cc1 | inconclusive: 44.7 µM [inhibitor, partial curve]
62 | CC(C)C(=O)Nc1ccc2c(c1)C(=O)NC2=O | inactive
63 | CC1=CC(=O)c2c(O)ccc(O)c2C1=O | active: 3.55 µM
64 | Cc1ccc(C(=O)CCC(=O)OC(C)C(=O)NC2CCCCC2C)cc1 (stereo unspecified) | inactive
65 | Cc1ccc(C(=O)N/C(=C\c2ccc(-c3ccccc3[N+](=O)[O-])o2)C(=O)NCCCN2CCOCC2)cc1 | inconclusive: 50.1 µM [inhibitor, partial curve]
66 | O=C1/C(=C/c2ccncc2)SC(=S)N1Nc1ccccc1 | inconclusive: 44.7 µM [inhibitor, partial curve]
67 | CCOC(=O)c1c(/N=C/c2cc(C)ccc2O)sc2c1CCC2 | active: 50.1 µM
68 | Cc1cccc(NC(=O)CSc2nc3ccccc3c3nc(CCn4cncc4C)nn23)c1 | inactive
69 | Nc1cc(S(=O)(=O)N2CCCCC2)ccc1N1CCCCC1 | inconclusive: 56.2 µM [inhibitor, partial curve]
70 | COC(=O)c1c(C)[nH]c(O)c1C=Nc1ccc(C#N)cc1 | active: 100 µM
71 | COCCn1c(C)cc(C(=O)CN2CCCCC2)c1C | inconclusive: 89.1 µM [inhibitor, single point]
72 | Cc1cccc(N2CCN(C(c3ccc(F)cc3)c3nnc(-c4ccccc4)o3)CC2)c1C (stereo unspecified) | active: 50.1 µM
73 | CCN(CC)c1ccc(/C=N/Nc2nn[nH]n2)cc1 | inconclusive: 56.2 µM [inhibitor, partial curve]
74 | CCC(CO)Nc1ccc(-c2n[nH]c(=O)c3ccccc23)cc1[N+](=O)[O-] (stereo unspecified) | inconclusive: 39.8 µM [inhibitor, partial curve]
75 | O=c1c2ccccc2oc2cc(OCc3ccc(F)cc3)cc(O)c12 | inactive
76 | CC[C@@H](C)[C@@H](C(=O)N1CCN(C(=O)OC(C)(C)C)CC1)n1cc(CCC(=O)O)nn1 | inactive
